Test results: the RNAGym collection of RNA variant scans (doi:10.7554/elife.90254)
The source gives no read counts; variants with many changes may rest on few reads.

B1: LINE1-mini (parent)
chain: GGCAGAGCUCAACACAGCGUGGCAAAGUGGCUGUGGCUAGACUGCC

Variants of: B1
Experiment: self-cleavage, relative activity (ratio to wild type); higher = more cleavage; in vitro, sequencing; the parent is a self-cleaving ribozyme

Variant	self-cleavage
C3U A11U G35U	0.02
C3U A11U U20C	0.06
C3U A11U U28G U34C G35A	0.07
C3U A11U U34G	0
C3U A12C A16C U34C U43A	0.04
C3U A12C A24U	0.02
C3U A12C A24U G27U C31U	0.03
C3U A12C A25U G36A	0.27
C3U A12C A41G	0.02
C3U A12C C37A	0.03
C3U A12C G22C A24U	0.02
C3U A12C U28A C45A	0.02
C3U A12C U34A G35U	0.01
C3U A12G A16C G19C	0.04
C3U A12G A16G	0.08
C3U A12G C15G	0
C3U A12G C15U G19U A26G U43G	0
C3U A12G C31G	0.13
C3U A12G G17C	0.03
C3U A12U A39G	0.02
C3U A12U C15A G17U U20G C37A	0.01
C3U A12U C23G C37U G44A	0
C3U A12U G19C A41C	0.05
C3U A12U G21A	0.53

Variant	self-cleavage
C3U A12U U38A A39G G40C C45G	0.03
C3U A14C A26C	0.08
C3U A14C A26G G29C U32A C42G C45A	0.01
C3U A14C G17C U20A G27U G35C	0.04
C3U A14C U43C	0.01
C3U A14G A24G	0.13
C3U A14G A24G A26G	0.46
C3U A14G A41U C46U	0.03
C3U A14G C23G	0.07
C3U A14G C23U U38A	0
C3U A14G C42U	0.04
C3U A14G C45G	0.11
C3U A14G G40U U43C	0
C3U A14U A16C U38G	0.11
C3U A14U C45U	0.04
C3U A14U G27C	0
C3U A16C A24C A25U U34C	0.02
C3U A16C C31U	0.06
C3U A16C G22C	0.01
C3U A16C G33U U38A C42A	0.06
C3U A16G G19U G21A A24U C42G	0.25
C3U A16G G30U C37A	0.16
C3U A16G G33C	0
C3U A16G U20C A24C U34C A39U U43G	0

Variant	self-cleavage
C3U A16U C18G G30U G33A G36U	0.04
C3U A16U C23A A25G A26G G33U A39U	0.03
C3U A16U G35U	0.04
C3U A16U G36U G40U	0.08
C3U A24C A26U G44U	0.07
C3U A24C G33A	0.14
C3U A24G A25U C45U	0.06
C3U A24G U28G G29A G44C	0.15
C3U A24U C31U	0.03
C3U A24U G33C A39G C42A	0.05
C3U A24U U32A A41U	0.26
C3U A25C G29U	0.16
C3U A25C G40A G44U	0.03
C3U A25G A26C U28C	0.11
C3U A25G C37A	0.07
C3U A25U U38A	0.11
C3U A25U U38C	0.18
C3U A26C C37A	0.11
C3U A26C G27C	0.18
C3U A26C G29U G35A U38A	0.03
C3U A26C G30U	0.13
C3U A26C U28C A39G C42A	0.01
C3U A26G U34G	0.11
C3U A26U G35C A41U	0.1

Variant	self-cleavage
C3U A26U U32C C37U G44U	0.06
C3U A41U C42A	0.17
C3U C8A A11U G33U G36A C46A	0.01
C3U C8A A12U G17A A26G	0.07
C3U C8A A14G G17C C23A	0.23
C3U C8A A16G G30U	2.57
C3U C8A A16U G27A	0.49
C3U C8A A24G G29U	0.42
C3U C8A C10G A11U G17U G33U	0.06
C3U C8A C10G C31G G33U	0.02
C3U C8A C13A C15A G27U G40C A41C U43G	0.43
C3U C8A C18G G22C G27A U32G	0.06
C3U C8A C45A	0.25
C3U C8A G17U A24C G44U	0.05
C3U C8A G35U G36U	0.5
C3U C8A U28C C31G	0.16
C3U C8G A11U C18G G44A	0.01
C3U C8G A16U C18G A41C C46A	0.06
C3U C8G C13A	0.03
C3U C8G C13U C18U G27A G33A	0.19
C3U C8G C18A G33A G40A	0.03
C3U C8G C37U	0.31
C3U C8G C45A	0.05
C3U C8G C46U	0.04

Variant	self-cleavage
C3U C8G G27U	0.08
C3U C8G G40U	0.04
C3U C8U A12C G35U C37U A41G	0.02
C3U C8U A12U C13A	0.06
C3U C8U A14C C23U	0.12
C3U C8U A41G	0.03
C3U C8U C10U C13G A39G C45A	0.01
C3U C8U C15A C18A U32G U38C C42A	0.16
C3U C8U C18A U32A	0.18
C3U C8U C23A C42U	0.53
C3U C8U C45U	0.34
C3U C8U G21U G40C	0.09
C3U C8U U20C G30A G44U	0.15
C3U C8U U28A U32G	0.17
C3U C10A A16G A24G	0.03
C3U C10A A16G A25U C31U U34A G44U	0.01
C3U C10A A24G G33C	0.06
C3U C10A A26G	0.05
C3U C10A A39C	0.05
C3U C10A C15G C37A C46U	0.02
C3U C10A C18A C31A A41C	0.04
C3U C10A C18U	0
C3U C10A C31A U32A C45A	0.03
C3U C10A G19C C42A	0.04

Variant	self-cleavage
C3U C10A G21U G35C U43G	0.01
C3U C10A G27C G35A C42U	0
C3U C10A G27U U32C	0.05
C3U C10A U20C C42A	0
C3U C10G A26U	0.03
C3U C10G C13U U38G	0.01
C3U C10G C23A U34A	0.04
C3U C10G C23G C45G	0.01
C3U C10G G17A G27C G35U	0.04
C3U C10G G21A A24C A25U G44C	0.12
C3U C10G G21U U32A	0.01
C3U C10G G29U	0
C3U C10U A11C C37U	0.04
C3U C10U A11U G40C C46U	0
C3U C10U A14C G22C	0.05
C3U C10U A14U U20A A25C C31G A41C	0.04
C3U C10U A16C U34C C46U	0.02
C3U C10U A24G A39U	0.11
C3U C10U A24G G29A C37U	0.03
C3U C10U A24U	0.13
C3U C10U C23G G29U G36U	0.03
C3U C10U G17C C37G	0.07
C3U C10U G19C A41C	0.03
C3U C10U U20A	0.1

Variant	self-cleavage
C3U C13A A16G	0.04
C3U C13A A16U C23G G27C G33C G44C	0.02
C3U C13A C18U G27U	0.04
C3U C13A C18U G36C G40C G44A	0.05
C3U C13A C23A G27U U32C C46A	0.07
C3U C13A G30U C46A	0.05
C3U C13A U28C U43C	0.03
C3U C13A U32C	0.14
C3U C13A U38C	0.11
C3U C13G A16U G17U C18A G22A U38A	0.12
C3U C13G A24U G29C C31G G40U C45A	0.01
C3U C13G A26C G30A	0.08
C3U C13G C18G	0.08
C3U C13G C23A G35U G40C	0.27
C3U C13G G21C U38A	0.06
C3U C13U A16G G19C A24G	0.02
C3U C13U C15G A16C C18U A25C	0.11
C3U C13U G17C A25G G30U G40U	0.05
C3U C13U G17C C37U C45G	0.11
C3U C13U U43A	0.1
C3U C15A A25C	0.08
C3U C15A A25G A26G	0.04
C3U C15A A26G G33U C45U	0.04
